Measurements as given in the supplement of paper PMC4967469.

What was measured:
Assay in all cases: Viability of human cancer cell lines after 72 h of drug (GDSC screen)
BMX-IN-1 (QL-XII-61) = compound: C=CC(=O)Nc1cc(-n2c(=O)ccc3cnc4ccc(-c5ccc(NS(C)(=O)=O)cc5)cc4c32)ccc1C [BMX-IN-1 (QL-XII-61)]; settings: top dose 10 µM; top dose inferred
Protocol: (§1)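 Human cancer cell lines in 384-well plates, medium with 10% serum, drug for 72 h over a 256-fold dose range (nine 2-fold or five 4-fold steps up to the top dose). Adherent lines were fixed and stained with the nucleic acid dye Syto60, suspension lines read with resazurin; signal relative to control wells, capped at 0 and 100%. One two-parameter sigmoid per drug and line, fitted in a mixed model over all curves with the slope shared within a line.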

17-AAG = compound: C=CCNC1=C2C[C@@H](C)C[C@H](OC)[C@H](O)[C@@H](C)/C=C(\C)[C@H](OC(N)=O)[C@@H](OC)/C=C\C=C(/C)C(=O)NC(=CC1=O)C2=O [17-AAG]; settings: top dose 1 µM
Protocol: as §1

CCT018159 = compound: CCc1cc(-c2n[nH]c(C)c2-c2ccc3c(c2)OCCO3)c(O)cc1O [CCT018159]; settings: top dose 10 µM; top dose inferred
Protocol: as §1

BIX02189 = compound: CN(C)Cc1cccc(N=C(c2ccccc2)c2c(O)[nH]c3cc(C(=O)N(C)C)ccc23)c1 [BIX02189]; settings: top dose 20 µM; top dose inferred
Protocol: as §1

Dimethyloxalylglycine = compound: COC(=O)CNC(=O)C(=O)OC [Dimethyloxalylglycine]; settings: top dose 4000 µM; top dose inferred
Protocol: as §1

OSI-027 = compound: COc1cccc2cc(-c3nc([C@H]4CC[C@H](C(=O)O)CC4)n4ncnc(N)c34)[nH]c12 [OSI-027]; settings: top dose 20 µM
Protocol: as §1

Vismodegib = compound: CS(=O)(=O)c1ccc(C(=O)Nc2ccc(Cl)c(-c3ccccn3)c2)c(Cl)c1 [Vismodegib]; settings: top dose 10 µM; top dose inferred
Protocol: as §1

VX-11e = compound: Cc1cnc(Nc2ccc(F)cc2Cl)nc1-c1c[nH]c(C(=O)N[C@H](CO)c2cccc(Cl)c2)c1 [VX-11e]; settings: top dose 5.12 µM; top dose inferred
Protocol: as §1

TG101348 = compound: Cc1cnc(Nc2ccc(OCCN3CCCC3)cc2)nc1Nc1cccc(S(=O)(=O)NC(C)(C)C)c1 [TG101348]; settings: top dose 10.24 µM
Protocol: as §1

UNC1215 = compound: O=C(c1ccc(C(=O)N2CCC(N3CCCC3)CC2)c(Nc2ccccc2)c1)N1CCC(N2CCCC2)CC1 [UNC1215]; settings: top dose 1 µM; top dose inferred
Protocol: as §1

| Cell Line | AUC (BMX-IN-1 (QL-XII-61)) | IC50 (BMX-IN-1 (QL-XII-61)) [µM] | AUC (17-AAG) | IC50 (17-AAG) [µM] | AUC (CCT018159) | IC50 (CCT018159) [µM] | AUC (BIX02189) | IC50 (BIX02189) [µM] | AUC (Dimethyloxalylglycine) | IC50 (Dimethyloxalylglycine) [µM] | AUC (OSI-027) | IC50 (OSI-027) [µM] | AUC (Vismodegib) | IC50 (Vismodegib) [µM] | AUC (VX-11e) | IC50 (VX-11e) [µM] | AUC (TG101348) | IC50 (TG101348) [µM] | AUC (UNC1215) | IC50 (UNC1215) [µM] |
| --- | --- | --- | --- | --- | --- | --- | --- | --- | --- | --- | --- | --- | --- | --- | --- | --- | --- | --- | --- | --- |
| HUTU-80 (digestive system, adherent) | 0.99 | > 10 | 0.923 | > 1 | 0.891 | 8.19 | 0.934 | > 20 | 0.761 | 1200 | 0.08 | < 0.0781 | 0.991 | > 10 | 0.832 | 2.52 | 0.807 | 4.19 | 0.991 | > 1 |
| JIMT-1 (breast, adherent) | 0.911 | > 10 | 0.483 | 0.0561 | 0.93 | > 10 | 0.964 | > 20 | 0.653 | 687 | 0.661 | 3.63 | 0.974 | > 10 | 0.962 | > 5.12 | 0.902 | > 10.2 | 0.981 | > 1 |
| KM12 (large intestine, adherent) | 0.964 | > 10 | 0.51 | 0.0668 | 0.791 | 4.91 | 0.746 | 6.81 | 0.768 | 1630 | 0.775 | 8.58 | 0.986 | > 10 | 0.871 | > 5.12 | 0.599 | 1.23 | 0.984 | > 1 |
| LS-180 (large intestine, adherent) | 0.983 | > 10 | 0.446 | 0.0436 | 0.948 | > 10 | 0.963 | > 20 | 0.605 | 507 | 0.761 | 8.06 | 0.982 | > 10 | 0.894 | > 5.12 | 0.931 | > 10.2 | 0.983 | > 1 |
| MES-SA (uterus, adherent) | 0.932 | > 10 | 0.315 | 0.0207 | 0.919 | > 10 | 0.991 | > 20 | 0.735 | 1040 | 0.947 | > 20 | 0.992 | > 10 | 0.99 | > 5.12 | 0.959 | > 10.2 | 0.991 | > 1 |
| MLMA (hairy cell leukaemia, semi-adherent) | 0.785 | 4.31 | 0.887 | > 1 | 0.897 | > 10 | 0.798 | 9.66 | 0.252 | 48.2 | 0.213 | 0.177 | 0.986 | > 10 | 0.908 | > 5.12 | 0.72 | 2.7 | 0.984 | > 1 |

The IC50 comes from the fitted curve, where viability falls to half of the control; a fit beyond the top or the lowest dose is shown as a bound at that dose. AUC, from the same fit, is the share of area under the viability curve across the 256-fold dose range; it is 1 without any effect and falls as sensitivity rises. For part of these data: An inferred top dose was derived from the fitted curves, not read from the paper.
